The supplement of paper PMC8728848
The list shows a part of the results.

Columns and labels:
Test in all cases: glycan array binding signal (z-score within array); higher = stronger binding
Details in all cases: glycan notation: IUPAC condensed, linker removed
[1] = target: Glc(b1-4)Glc(b1-4)Glc(b1-4)Glc(b1-4)Glc(b1-4)Glc(b1-4)Glc
How it was run: (§1)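 From the Consortium for Functional Glycomics database, 3228 arrays were curated, keeping only those whose protein sequence was available. Binding is given as a within-array Z-score averaged across arrays sharing a protein sequence and across linkers. Negative Z-scores can be read as non-binding.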

[2] = target: Glc(b1-4)Glc(b1-4)Glc(b1-4)Glc(b1-4)Glc(b1-4)Glc(b1-4)Glc(b1-4)Glc
How it was run: as §1

[3] = target: Glc(b1-4)Glc(b1-4)Glc(b1-4)Glc(b1-4)Glc(b1-4)Glc(b1-4)Glc(b1-4)Glc(b1-4)Glc
How it was run: as §1

[4] = target: Glc(b1-4)Glc(b1-4)Glc(b1-4)Glc(b1-4)Glc(b1-4)Glc(b1-4)Glc(b1-4)Glc(b1-4)Glc(b1-4)Glc
How it was run: as §1

[5] = target: Glc(b1-4)Glc(b1-4)Glc(b1-4)Glc(b1-4)Glc(b1-4)Glc(b1-4)Glc(b1-4)Glc(b1-4)Glc(b1-4)Glc(b1-4)Glc
How it was run: as §1

[6] = target: Glc(b1-4)Glc(b1-4)Glc(b1-4)Glc(b1-4)Glc(b1-4)Glc(b1-4)Glc(b1-4)Glc(b1-4)Glc(b1-4)Glc(b1-4)Glc(b1-4)Glc
How it was run: as §1

[7] = target: Glc(b1-4)Glc(b1-4)Glc(b1-4)Glc(b1-4)Glc(b1-4)Glc(b1-4)Glc(b1-4)Glc(b1-4)Glc(b1-4)Glc(b1-4)Glc(b1-4)Glc(b1-4)Glc
How it was run: as §1

Glc(b1-6)Glc = target: Glc(b1-6)Glc
How it was run: as §1

Glc(b1-6)Glc(b1-6)Glc = target: Glc(b1-6)Glc(b1-6)Glc
How it was run: as §1

[8] = target: Glc(b1-6)Glc(b1-6)Glc(b1-6)Glc
How it was run: as §1

[9] = target: Glc(b1-6)Glc(b1-6)Glc(b1-6)Glc(b1-6)Glc
How it was run: as §1

[10] = target: Glc(b1-6)Glc(b1-6)Glc(b1-6)Glc(b1-6)Glc(b1-6)Glc
How it was run: as §1

[11] = target: Glc(b1-6)Glc(b1-6)Glc(b1-6)Glc(b1-6)Glc(b1-6)Glc(b1-6)Glc
How it was run: as §1

[12] = target: Glc(b1-6)Glc(b1-6)Glc(b1-6)Glc(b1-6)Glc(b1-6)Glc(b1-6)Glc(b1-6)Glc
How it was run: as §1

GlcA(b1-3)Gal = target: GlcA(b1-3)Gal
How it was run: as §1

[13] = target: GlcA(b1-3)Gal(b1-3)GlcNAc
How it was run: as §1

GlcA(b1-3)Gal(b1-4)Glc = target: GlcA(b1-3)Gal(b1-4)Glc
How it was run: as §1

[14] = target: GlcA(b1-3)Gal(b1-4)GlcNAc(b1-3)Gal(b1-4)Glc
How it was run: as §1

[15] = target: GlcA(b1-3)Gal(b1-4)GlcNAc(b1-3)Gal(b1-4)GlcNAc(b1-3)Gal(b1-4)Glc
How it was run: as §1

[16] = target: GlcA(b1-3)GlcNAc(b1-4)GlcA(b1-3)GlcNAc
How it was run: as §1

[17] = target: GlcA(b1-3)GlcNAc(b1-4)GlcA(b1-3)GlcNAc(b1-4)GlcA(b1-3)GlcNAc(b1-4)GlcA(b1-3)GlcNAc(b1-4)GlcA(b1-3)GlcNAc(b1-4)GlcA(b1-3)GlcNAc(b1-4)GlcA(b1-3)GlcNAc
How it was run: as §1

[18] = target: GlcA(b1-4)GlcNAc(a1-4)GlcA(b1-4)2,5-Anhydro-Man
How it was run: as §1

[19] = target: GlcA(b1-4)GlcNAc(a1-4)GlcA(b1-4)GlcNAc(a1-4)GlcA(b1-4)GlcNAc(a1-4)GlcA(b1-4)2,5-Anhydro-Man
How it was run: as §1

GlcA3S(b1-3)Gal = target: GlcA3S(b1-3)Gal
How it was run: as §1

GlcA3S(b1-3)Gal(b1-4)Glc = target: GlcA3S(b1-3)Gal(b1-4)Glc
How it was run: as §1

[20] = target: GlcA3S(b1-3)Gal(b1-4)GlcNAc(b1-3)Gal(b1-4)Glc
How it was run: as §1

[21] = target: GlcA3S(b1-3)Gal(b1-4)GlcNAc(b1-3)Gal(b1-4)GlcNAc(b1-3)Gal(b1-4)Glc
How it was run: as §1

GlcNAc(a1-4)Gal = target: GlcNAc(a1-4)Gal
How it was run: as §1

[22] = target: GlcNAc(a1-4)Gal(b1-3)[Fuc(a1-2)]Gal
How it was run: as §1

GlcNAc(b1-2)Fuc = target: GlcNAc(b1-2)Fuc
How it was run: as §1

GlcNAc(b1-2)Man = target: GlcNAc(b1-2)Man
How it was run: as §1

[23] = target: GlcNAc(b1-2)Man(a1-3)[GlcNAc(b1-2)Man(a1-6)]Man
How it was run: as §1

[24] = target: GlcNAc(b1-2)Man(a1-3)[GlcNAc(b1-2)Man(a1-6)]Man(b1-4)GlcNAc(b1-4)GlcNAc
How it was run: as §1

[25] = target: GlcNAc(b1-2)Man(a1-3)[GlcNAc(b1-2)Man(a1-6)]Man(b1-4)GlcNAc(b1-4)[Fuc(a1-6)]GlcNAc
How it was run: as §1

[26] = target: GlcNAc(b1-2)Man(a1-3)[GlcNAc(b1-2)Man(a1-6)][GlcNAc(b1-4)]Man(b1-4)GlcNAc(b1-4)GlcNAc
How it was run: as §1

[27] = target: GlcNAc(b1-2)Man(a1-3)[Man(a1-3)[Man(a1-6)]Man(a1-6)][GlcNAc(b1-4)]Man(b1-4)GlcNAc(b1-4)GlcNAc
How it was run: as §1

[28] = target: GlcNAc(b1-2)[GlcNAc(b1-4)]Man(a1-3)[GlcNAc(b1-2)Man(a1-6)][GlcNAc(b1-4)]Man(b1-4)GlcNAc(b1-4)GlcNAc
How it was run: as §1

[29] = target: GlcNAc(b1-2)[GlcNAc(b1-4)]Man(a1-3)[GlcNAc(b1-2)[GlcNAc(b1-4)][GlcNAc(b1-6)]Man(a1-6)][GlcNAc(b1-4)]Man(b1-4)GlcNAc(b1-4)GlcNAc
How it was run: as §1

[30] = target: GlcNAc(b1-2)[GlcNAc(b1-4)]Man(a1-3)[GlcNAc(b1-2)[GlcNAc(b1-6)]Man(a1-6)]Man(b1-4)GlcNAc(b1-4)GlcNAc
How it was run: as §1

GlcNAc(b1-3)Fuc = target: GlcNAc(b1-3)Fuc
How it was run: as §1

GlcNAc(b1-3)Gal(b1-4)Glc = target: GlcNAc(b1-3)Gal(b1-4)Glc
How it was run: as §1

[31] = target: GlcNAc(b1-3)[GlcNAc(b1-6)]Gal
How it was run: as §1

[32] = target: GlcNAc(b1-3)[GlcNAc(b1-6)]Gal(b1-4)GlcNAc(b1-3)[GlcNAc(b1-6)]Gal(b1-4)GlcNAc(b1-3)Gal(b1-4)Glc
How it was run: as §1

GlcNAc(b1-4)Fuc = target: GlcNAc(b1-4)Fuc
How it was run: as §1

GlcNAc(b1-4)GlcNAc = target: GlcNAc(b1-4)GlcNAc
How it was run: as §1

B1: HysACBM (Streptococcus pneumoniae), Q54873 (protein)
chain: KNLVENGDFGQTEDGSSPWTGSKAQGWSAWVDQKNSADASTRVIEAKDGAITISSHEKLRAALHRMVPIEAKKKYKLRFKIKTDNKIGIAKVRIIEESGKDKRLWNSATTSGTKDWQTIEADYSPTLDVDKIKLELFYETGTGTVSFKDIELVEVADQLS
With B1 the “glycan array binding signal (z-score)” value [1] was -0.091, the “glycan array binding signal (z-score)” value [2] was -0.091 and the “glycan array binding signal (z-score)” value [3] was -0.091. The “glycan array binding signal (z-score)” value [4] was -0.091, the “glycan array binding signal (z-score)” value [5] was -0.091 and the “glycan array binding signal (z-score)” value [6] was -0.091. The “glycan array binding signal (z-score)” value [7] was -0.091, the “glycan array binding signal (z-score)” value (Glc(b1-6)Glc) was -0.091 and the “glycan array binding signal (z-score)” value (Glc(b1-6)Glc(b1-6)Glc) was -0.091. The “glycan array binding signal (z-score)” value [8] was -0.091, the “glycan array binding signal (z-score)” value [9] was -0.091 and the “glycan array binding signal (z-score)” value [10] was -0.091. The “glycan array binding signal (z-score)” value [11] was -0.091, the “glycan array binding signal (z-score)” value [12] was -0.091 and the “glycan array binding signal (z-score)” value (GlcA(b1-3)Gal) was 0.267. The “glycan array binding signal (z-score)” value [13] was -0.091, the “glycan array binding signal (z-score)” value (GlcA(b1-3)Gal(b1-4)Glc) was -0.091 and the “glycan array binding signal (z-score)” value [14] was -0.016. The “glycan array binding signal (z-score)” value [15] was 0.111, the “glycan array binding signal (z-score)” value [16] was -0.091 and the “glycan array binding signal (z-score)” value [17] was 21.5. The “glycan array binding signal (z-score)” value [18] was -0.091, the “glycan array binding signal (z-score)” value [19] was -0.091 and the “glycan array binding signal (z-score)” value (GlcA3S(b1-3)Gal) was -0.091. For the same binder, the “glycan array binding signal (z-score)” value (GlcA3S(b1-3)Gal(b1-4)Glc) was -0.091, the “glycan array binding signal (z-score)” value [20] was -0.079 and the “glycan array binding signal (z-score)” value [21] was -0.091. For the same binder, the “glycan array binding signal (z-score)” value (GlcNAc(a1-4)Gal) was -0.091, the “glycan array binding signal (z-score)” value [22] was -0.091 and the “glycan array binding signal (z-score)” value (GlcNAc(b1-2)Fuc) was -0.091. The “glycan array binding signal (z-score)” value (GlcNAc(b1-2)Man) was -0.091, the “glycan array binding signal (z-score)” value [23] was -0.091 and the “glycan array binding signal (z-score)” value [24] was -0.091. For the same binder, the “glycan array binding signal (z-score)” value [25] was -0.087, the “glycan array binding signal (z-score)” value [26] was 0.111 and the “glycan array binding signal (z-score)” value [27] was -0.024. The “glycan array binding signal (z-score)” value [28] was -0.091, the “glycan array binding signal (z-score)” value [29] was 0.047 and the “glycan array binding signal (z-score)” value [30] was 0.264. The “glycan array binding signal (z-score)” value (GlcNAc(b1-3)Fuc) was -0.05, the “glycan array binding signal (z-score)” value (GlcNAc(b1-3)Gal(b1-4)Glc) was 0.223 and the “glycan array binding signal (z-score)” value [31] was -0.091. The “glycan array binding signal (z-score)” value [32] was -0.091, the “glycan array binding signal (z-score)” value (GlcNAc(b1-4)Fuc) was -0.091 and the “glycan array binding signal (z-score)” value (GlcNAc(b1-4)GlcNAc) was 0.131.
